Assay results from the supplement of paper PMC10338343.
± gives the standard deviation. The entries are a selection whose mix differs from that of the whole data set.

System: MIWI (PIWIL1) piRISC loaded with L1MC piRNA (30 nt)
Assay: pre-steady-state target cleavage rate (min^-1); MIWI and MILI are mouse PIWI proteins and EfPiwi is from a freshwater sponge; tags in brackets are library labels; higher = faster piRNA-guided slicing of the target
Details: guide: L1MC piRNA 5'p-UAACUAAAUACUAUGCAAGCUGUAGGUCCU; auxiliary factor: 500 nM mouse GTSF1
Procedure: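 Cleave-'n-Seq: a library of target RNAs (target site embedded in constant flanks, ACAGCATTCCGCGTTAGTGATATCCG... 5' flank; DNA-blocked outside the site) at 0.1 nM was incubated with 1 nM active mouse MILI or MIWI piRISC (synthetic 5'-monophosphorylated piRNA guide) with or without 500 nM mouse GTSF1 at 33 °C for 1 min to 16 h. Uncleaved targets were sequenced and normalised to non-target controls, and the pooled three trials were fitted to a burst-and-steady-state model to give the pre-steady-state cleavage rate (min^-1; k3 is constrained to at most 1e-4). Sequence is the target site only; target names encode pairing extent (gX:gY) and contiguous / 1-mismatch / 2-mismatch / bulge geometry. Fits with R² ≤ 0 are excluded.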

Sequence | pre-steady-state target cleavage rate
UCCUGGAUGUCCUUGCAUUGUAUUUAGUUA | 0.0123 ± 0.0044
UCGAUCCUACAGCUUGCAUAGUAUUUAGUUA | 1.49 ± 0.042
UCCUGGAACACCUUGCAUAGUAUUUAGAAA | 0.143 ± 0.029
UCCUGGAACAGCUAUGCAUAGUAUUUAGUUA | 0.689 ± 0.043
UCCUGGUACAGCUAGCAUUGUAUUUAGUUA | 0.285 ± 0.032
UGGACCGACAGCUUGCAUAGUAUUUAGUUA | 1.45 ± 0.076
AGGACCUACAGCUUGCAUACUAUUUAGAUA | 0.168 ± 0.034
UCCUGGAACAGCUUGCAUAGAAUUUUGUUA | 0.216 ± 0.045
UGGUGCUACAGCUUGCAUAGUAUUUAGUUA | 0.988 ± 0.079
UCCUGCUACAGCUUGCAUAGUAUUUAGUUC [g2:g25:cont:t1C] | 0.861 ± 0.048
UCCACCUUGAGCUUGCAUAGUAUUUACAAA | 0.248 ± 0.038
UCCUGCUACAGCUUGCAUUGUAUUUAGUAA | 0.464 ± 0.039
UCGACCUACAGCUUGCUUAGUAUUUACUUA | 0.758 ± 0.055
UGGACCUACAGCUUGCAUAGUAUUGAGUUA | 0.58 ± 0.059
AGGACCUAGAGCUUGCAUAGUAUUUAGUUA | 1.26 ± 0.07
UGGACCUACAGCUUGCAUAGUAUUUAGUGUA | 0.833 ± 0.062
UCCACCUACAGCUUGCAUAGUAUUCAGUUA | 0.558 ± 0.047
AGGACCUACAGUCUUGCAUAGUAUUUAGUUA | 1.16 ± 0.091
UCCUGGAUGAGCUUGCAUAGUAUUUUAGUUA | 0.571 ± 0.047
AGGACCUACAGCUUGCAUAGUAUUGUAGUUA | 0.601 ± 0.089

Same assay, conditions: guide: L1MC piRNA 5'p-UAACUAAAUACUAUGCAAGCUGUAGGUCCU; auxiliary factor: none (no GTSF1)

Sequence | pre-steady-state target cleavage rate
UCCUGGAUGUCCUUGCAUUGUAUUUAGUUA | 0.00432 ± 0.0019
UCGAUCCUACAGCUUGCAUAGUAUUUAGUUA | 0.0686 ± 0.013
UCCUGGAACACCUUGCAUAGUAUUUAGAAA | 0.00306 ± 0.003
UCCUGGAACAGCUAUGCAUAGUAUUUAGUUA | 0.0215 ± 0.0054
UCCUGGUACAGCUAGCAUUGUAUUUAGUUA | 0.0119 ± 0.0035
UGGACCGACAGCUUGCAUAGUAUUUAGUUA | 0.0713 ± 0.013
AGGACCUACAGCUUGCAUACUAUUUAGAUA | 0.0118 ± 0.0035
UCCUGGAACAGCUUGCAUAGAAUUUUGUUA | 0.0149 ± 0.0042
UGGUGCUACAGCUUGCAUAGUAUUUAGUUA | 0.0764 ± 0.017
UCCUGCUACAGCUUGCAUAGUAUUUAGUUC [g2:g25:cont:t1C] | 0.0453 ± 0.0097
UCCACCUUGAGCUUGCAUAGUAUUUACAAA | 0.00282 ± 0.0019
UCCUGCUACAGCUUGCAUUGUAUUUAGUAA | 0.00925 ± 0.0026
UCGACCUACAGCUUGCUUAGUAUUUACUUA | 0.0254 ± 0.0061
UGGACCUACAGCUUGCAUAGUAUUGAGUUA | 0.0415 ± 0.0059
AGGACCUAGAGCUUGCAUAGUAUUUAGUUA | 0.0629 ± 0.011
UGGACCUACAGCUUGCAUAGUAUUUAGUGUA | 0.0707 ± 0.015
UCCACCUACAGCUUGCAUAGUAUUCAGUUA | 0.0211 ± 0.004
AGGACCUACAGUCUUGCAUAGUAUUUAGUUA | 0.0691 ± 0.014
UCCUGGAUGAGCUUGCAUAGUAUUUUAGUUA | 0.0281 ± 0.0094
AGGACCUACAGCUUGCAUAGUAUUGUAGUUA | 0.0696 ± 0.014
